Biological target: T1, CHAF1A-His (His-fused full-length CHAF1A) (human)
T1 construct: CHAF1A, human, wild-type cDNA from HEK293T cells in pET32a; also called His-tagged CHAF1A; recombinant CHAF1A; source: E. coli BL21 (DE3), purified (Ni-NTA)
Test: pull-down; His pull-down: Ni-NTA beads coupled to His-fused CHAF1A (full length, N, M or C) incubated with recombinant RAD18-GST in 1x PBS at 4 °C; Coomassie or western blot
Conditions: both partners purified

B1: RAD18-GST (GST-fused RAD18) (enzyme)
chain: not shown
notes: RAD18, human, full-length cDNA clone from HEK293T cells in pGEX-6P-1; also called GST-tagged RAD18; recombinant RAD18; source: E. coli BL21 (DE3), purified (GST resin)
binding result: binds
